# Laboratory results taken from the supplement of paper PMC8728848.
# The list shows a part of the results.
# Experiments:
# Experiment in all cases: glycan array binding signal (z-score within array); higher = stronger binding
# Conditions in all cases: glycan notation: IUPAC condensed, linker removed
# [1] = molecular target: Neu5Ac(a2-6)GlcNAc(b1-4)GlcNAc(b1-4)GlcNAc
# Summary of the method: (§1)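 The Consortium for Functional Glycomics database supplied 3228 glycan arrays, of which those lacking an available protein sequence were dropped. The binding signal, a within-array Z-score, was averaged across arrays of the same protein sequence and across linkers. Negative scores can be read as non-binding.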
# [2] = molecular target: Neu5Ac(a2-8)Neu5Ac
# Summary of the method: as §1
# [3] = molecular target: Neu5Ac(a2-8)Neu5Ac(a2-3)Gal(b1-3)GalNAc(b1-4)[Neu5Ac(a2-3)]Gal(b1-4)Glc
# Summary of the method: as §1
# [4] = molecular target: Neu5Ac(a2-8)Neu5Ac(a2-3)Gal(b1-3)GalNAc(b1-4)[Neu5Ac(a2-8)Neu5Ac(a2-3)]Gal(b1-4)Glc
# Summary of the method: as §1
# [5] = molecular target: Neu5Ac(a2-8)Neu5Ac(a2-3)Gal(b1-4)Glc
# Summary of the method: as §1
# [6] = molecular target: Neu5Ac(a2-8)Neu5Ac(a2-3)Gal(b1-4)GlcNAc
# Summary of the method: as §1
# [7] = molecular target: Neu5Ac(a2-8)Neu5Ac(a2-3)[Gal(b1-3)GalNAc(b1-4)]Gal(b1-4)Glc
# Summary of the method: as §1
# [8] = molecular target: Neu5Ac(a2-8)Neu5Ac(a2-3)[GalNAc(b1-4)]Gal(b1-4)Glc
# Summary of the method: as §1
# [9] = molecular target: Neu5Ac(a2-8)Neu5Ac(a2-8)Neu5Ac
# Summary of the method: as §1
# [10] = molecular target: Neu5Ac(a2-8)Neu5Ac(a2-8)Neu5Ac(a2-3)Gal(b1-4)Glc
# Summary of the method: as §1
# [11] = molecular target: Neu5Ac(a2-8)Neu5Ac(a2-8)Neu5Ac(a2-3)[Gal(b1-3)GalNAc(b1-4)]Gal(b1-4)Glc
# Summary of the method: as §1
# [12] = molecular target: Neu5Ac(a2-8)Neu5Ac(a2-8)Neu5Ac(a2-3)[GalNAc(b1-4)]Gal(b1-4)Glc
# Summary of the method: as §1
# [13] = molecular target: Neu5Ac(a2-8)Neu5Ac(a2-8)Neu5Ac(a2-8)Neu5Ac(a2-3)[GalNAc(b1-4)]Gal(b1-4)Glc
# Summary of the method: as §1
# [14] = molecular target: Neu5Ac(a2-8)Neu5Gc(a2-3)Gal(b1-4)GlcNAc
# Summary of the method: as §1
# [15] = molecular target: Neu5Ac(b2-6)Gal(b1-4)GlcNAc
# Summary of the method: as §1
# [16] = molecular target: Neu5Ac(b2-6)GalNAc
# Summary of the method: as §1
# [17] = molecular target: Neu5Ac9Ac(a2-3)Gal(b1-3)GlcNAc
# Summary of the method: as §1
# [18] = molecular target: Neu5Ac9Ac(a2-3)Gal(b1-4)GlcNAc
# Summary of the method: as §1
# [19] = molecular target: Neu5Ac9Ac(a2-6)Gal(b1-4)GlcNAc
# Summary of the method: as §1
# [20] = molecular target: Neu5Gc(a2-3)Gal(b1-3)GlcNAc
# Summary of the method: as §1
# [21] = molecular target: Neu5Gc(a2-3)Gal(b1-3)[Fuc(a1-4)]GlcNAc
# Summary of the method: as §1
# [22] = molecular target: Neu5Gc(a2-3)Gal(b1-4)Glc
# Summary of the method: as §1
# [23] = molecular target: Neu5Gc(a2-3)Gal(b1-4)GlcNAc
# Summary of the method: as §1
# [24] = molecular target: Neu5Gc(a2-3)Gal(b1-4)GlcNAc(b1-3)Gal(b1-4)GlcNAc(b1-2)Man(a1-3)[Neu5Gc(a2-3)Gal(b1-4)GlcNAc(b1-3)Gal(b1-4)GlcNAc(b1-2)Man(a1-6)]Man(b1-4)GlcNAc(b1-4)GlcNAc
# Summary of the method: as §1
# [25] = molecular target: Neu5Gc(a2-3)Gal(b1-4)[Fuc(a1-3)]GlcNAc
# Summary of the method: as §1
# [26] = molecular target: Neu5Gc(a2-6)Gal(b1-4)GlcNAc
# Summary of the method: as §1
# [27] = molecular target: Neu5Gc(a2-6)GalNAc
# Summary of the method: as §1
# [28] = molecular target: Neu5Gc(a2-8)Neu5Ac(a2-3)Gal(b1-4)GlcNAc
# Summary of the method: as §1
# [29] = molecular target: Neu5Gc(a2-8)Neu5Gc(a2-3)Gal(b1-4)GlcNAc
# Summary of the method: as §1
# [30] = molecular target: Neu5Gc(a2-8)Neu5Gc(a2-3)Gal(b1-4)GlcNAc(b1-3)Gal(b1-4)GlcNAc
# Summary of the method: as §1
# [31] = molecular target: Neu5Gc(a2-8)Neu5Gc(a2-6)Gal(b1-4)GlcNAc
# Summary of the method: as §1
# [32] = molecular target: Neu5Gc(b2-6)Gal(b1-4)GlcNAc
# Summary of the method: as §1
binder,measurement,setting,value
AFCNVH (Aspergillus fumigatus) (protein) MSLRGFHTTCDTIVLKDKHILSSRCKRPDGTYSFSEIDLNDCLGNNNGKFVWGGESFVDSASQVNLALEGGEGRPMLHAQLNDWHGSVQSASVNLGECIQNEAGGLEYMHC,glycan array binding signal (z-score),[1],3.29
same,glycan array binding signal (z-score),[2],-0.354
same,glycan array binding signal (z-score),[3],-0.287
same,glycan array binding signal (z-score),[4],-0.075
same,glycan array binding signal (z-score),[5],-0.371
same,glycan array binding signal (z-score),[6],-0.227
same,glycan array binding signal (z-score),[7],-0.427
same,glycan array binding signal (z-score),[8],-0.432
same,glycan array binding signal (z-score),[9],-0.35
same,glycan array binding signal (z-score),[10],-0.451
same,glycan array binding signal (z-score),[11],-0.421
same,glycan array binding signal (z-score),[12],-0.465
same,glycan array binding signal (z-score),[13],-0.425
same,glycan array binding signal (z-score),[14],-0.48
same,glycan array binding signal (z-score),[15],-0.452
same,glycan array binding signal (z-score),[16],-0.314
same,glycan array binding signal (z-score),[17],-0.434
same,glycan array binding signal (z-score),[18],0.108
same,glycan array binding signal (z-score),[19],-0.359
same,glycan array binding signal (z-score),[20],-0.397
same,glycan array binding signal (z-score),[21],-0.246
same,glycan array binding signal (z-score),[22],-0.447
same,glycan array binding signal (z-score),[23],-0.375
same,glycan array binding signal (z-score),[24],-0.488
same,glycan array binding signal (z-score),[25],-0.365
same,glycan array binding signal (z-score),[26],-0.309
same,glycan array binding signal (z-score),[27],-0.446
same,glycan array binding signal (z-score),[28],-0.215
same,glycan array binding signal (z-score),[29],-0.534
same,glycan array binding signal (z-score),[30],-0.325
same,glycan array binding signal (z-score),[31],-0.231
same,glycan array binding signal (z-score),[32],-0.495
